Measured values taken from PubChem BioAssay AID493208 (National Center for Advancing Translational Sciences (NCATS), 2011).
Among all 44,000 compounds or so, about 340 (0.77%) were called active. Roughly 5% stayed inconclusive and do not appear here. Calls come from the whole dose curve; as a rule, active = well fitted inhibition curve with a large enough effect; inconclusive = small, poorly fitted or top-dose-only effect; inactive = flat fitted curve, though single readings scatter. This is one part of the list.

Experiment: Acumen qHTS Assay for Inhibitors of the mTORC1 Signaling Pathway in MEF (Tsc2-/-, p53-/-) Cells: Sytravon;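 note: plate controls were DMSO for no effect and rapamycin for full effect; nearly all actives have a fitted effect of over 50% in size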
Conditions: phospho-rpS6 immunofluorescence/PI, 24 h; series mostly up to 38.3 µM; activity change, negative = inhibition: at the top concentration
Summary of the method: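 Plate MEFs (Tsc2-/-, p53-/-, empty vector) in DMEM/10% FBS; after 24 h add compound, incubate 24 h at 37 degree Celsius; fix in PFA/TX-100, block, stain phospho-rpS6 and 10 uM PI; scan at 488 nm; report % positive cells.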

Activity change, negative = inhibition, inactive:
CCc1nn(CC(=O)NCC(C)c2ccccc2)c(=O)c2cc3occc3n12 (stereo unspecified) 0.987%
COC(=O)c1cc2c(cc1NC(=O)c1cnn(-c3ccccc3)c1-n1cccc1)OCO2 -0.0048%
CSc1nc(Nc2ccc(C)cc2C)cc(-c2ccccc2)n1 -2.8%
CCOC(=O)CNC(=O)CSc1cn(CC(=O)N2CCCCCC2)c2ccccc12 0.889%
CN(Cc1ccccc1)C(=O)C1CCN(S(=O)(=O)c2ccc3c(c2)oc(=O)n3C)CC1 -5.34%
Cc1cccc(C(=O)Nc2nnc(S(=O)(=O)N(C)Cc3ccc(Cl)cc3)s2)c1 -5.06%
O=C1COc2ccc(-c3cc(-c4ccc(Cl)cc4)c4c(n3)-c3ccccc3OC4)cc2N1 19.3%
Cc1cccc(Cn2c(=O)n(CC3CCC(C(=O)NC(C)C)CC3)c(=O)c3sccc32)c1 (stereo unspecified) 0%
COc1ccc(NC(=O)CN2C(=O)C(C)(C)c3ccccc32)cc1Cl -3.34%
CSc1ccc(CCNC(=O)C2=C(C)C(=O)OC23CCCCC3)cc1 -7.28%
COc1cc(CNC(=O)c2sc3ncccc3c2-n2cccc2)cc(OC)c1OC -12.7%
COc1cccc(C2CC(=O)Nc3cc(OC)c(OC)c(OC)c32)c1OC(C)C (stereo unspecified) -7.39%
Cc1nn(-c2ccccc2)c(OC(=O)c2cccc(Br)c2)c1S(=O)(=O)c1ccccc1 1.31%
N#Cc1nc(-c2ccc(COc3ccccc3)o2)oc1NCc1cccnc1 -4.22%
COC(=O)c1ccc(OCC2c3cc(OC)c(OC)cc3CCN2C(=O)c2ccccc2C)cc1 (stereo unspecified) 10.1%
Cc1ccc(-c2nnc(Nc3ccc(Br)cc3)c3ccccc23)cc1S(=O)(=O)NCC1CCCO1 (stereo unspecified) 2.4%
Cc1nc(N2CCCC2)c2c(C(=O)N3CCN(c4ccc(F)cc4)CC3)c(C)oc2n1 -3.24%
CCc1cccc(CC)c1NC(=O)c1c(C)oc2ccc(O)c(CN3CCN(C)CC3)c12 6.84%
Cc1cccc(N2CCN(C(=O)Cn3ncc4c3-c3cc(C)ccc3OC4)CC2C)c1 (stereo unspecified) 1.43%
Cc1cc(C)cc(NC(=O)c2cc(C)nc3c2c(C)nn3-c2ccccc2)c1 -23.5%
COc1cccc(-c2nc(SCC(=O)NCC3CCCO3)c(-c3ccc(C)cc3)[nH]2)c1 (stereo unspecified) -30.8%
COc1ccc(NC(=O)Cn2c(=O)n(CCC(C)C)c(=O)c3cccnc32)cc1Cl 0.997%
CCOc1ccc(C2CC(=O)NC(NC(=O)c3ccc(C)cc3)=N2)cc1 (stereo unspecified) 3.61%
Cc1ccc(OCC(=O)N(Cc2ccc(Cl)cc2)Cc2ccco2)cc1C 2.99%
CC(C)NC(=O)C1CCC(Cn2c(=O)c3sccc3n(CC(=O)N3CCCC3)c2=O)CC1 (stereo unspecified) -8.64%
COc1ccc(NC(=O)c2ccc3c(=O)n4nc(Nc5ccccc5C)sc4nc3c2)cc1Cl 0.881%
